Measurements published in patent EP4786487A1, “PEPTIDE” (Peptidream Inc, priority 2023, dated 2025).
Part of at least one peptide drawing is inferred or uncertain, most often the ends. Starred links: 1 amine or outer side, 2 acyl side, 3 side chain; linkers in the order of their positions; H or OH if unused. Positions of bridges follow the written chain, without caps; N, C: chain ends. Non-standard residues stand in square brackets, D forms with d. Residues, ends and D or L forms follow the SMILES beside them. *: point of attachment. Trp(6-OH,1-(4-HO2C-Ph)) = N[C@@H](Cc1cn(-c2ccc(C(=O)O)cc2)c2cc(O)ccc12)C(=O)O; Phe(3-OCH2COOH) = N[C@@H](Cc1cccc(OCC(=O)O)c1)C(=O)O; N(CH2CH2CO)Gly = O=C(CN(CCC(=O)[*:3])[*:1])[*:2]; Piperidine(4-CH2CH2CONH2) = NC(=O)CCC1CCN(*)CC1; Phe(4-COOH) = N[C@@H](Cc1ccc(C(=O)O)cc1)C(=O)O; Gly(N(CH2)3COOH) = O=C(O)CCCNCC(=O)O; X1 = CCCCCCC[C@H](N[*:1])C(=O)[*:2]; NMeF = CN[C@@H](Cc1ccccc1)C(=O)O; NMeDap = CN[C@@H](CN)C(=O)O; NMeA = CN[C@@H](C)C(=O)O

Tested on: GDF-11
Assay: Reporter gene assay for myostatin signaling in HepG2 cell line, Evaluation Procedure (1), GDF-11 inhibition
Format: cell-based
Conditions: GDF-11 IC50 relative to myostatin IC50, HepG2
Procedure: In this Example, the in vitro myostatin inhibitory effects of the peptides synthesized in Examples 1 and 2 were evaluated using a reporter gene assay for myostatin signaling in HepG2 cell line.
HepG2 cell line (HB-8065, ATCC) cultured in EMEM (055-08975, WAKO Industries) containing 10% FBS (10270106, Gibco) and 50 µg/mL gentamicin (11980-14, Nacalai Tesque) was seeded in 96-well plates (167008, Thermo) at 2.0 × 10^4 cells/well and incubated in a CO2 incubator (37°C, 5% CO2) for 24 hours. The pGL3(CAGA)12-luc plasmid, namely a pGL3 vector (E1751, Promega) having a luciferase gene inserted downstream of a promoter sequence with 12 CAGA repeats attached, was added to the wells along with a transfection reagent (X-treamGENE9 DNA Transfection Reagent, 6365809001, Roche) at a concentration of 0.04 µg/well. The cell line was cultured in a CO2 incubator (37°C, 5% CO2) for 24 hours for transfection. The medium was discarded and replaced with EMEM containing 50 µL/well of 0.1% bovine serum albumin (A7030, Sigma) and 50 µg/mL gentamicin, and incubated in a CO2 incubator (37°C, 5% CO2) for 2 hours.
Myostatin (788-G8/C, R&D systems) or GDF-11 (1958-GD-G8/CF, R&D systems) was added so that the final concentrations were those listed in Table 5.
A 4-fold dilution series of various peptides synthesized in Examples 1 and 2 was added to achieve 0.006-100 nmol/L (myostatin inhibition) and 0.12-2000 nmol/L (GDF-11 inhibition). At this time, blank wells, in which neither myostatin, GDF-11, nor each peptide was added, were also prepared and incubated in a CO2 incubator (37°C, 5% CO2) for 20 to 24 hours.
The medium containing the cells was removed, and a mixture containing PBS (14190144, Thermo) and a chromogenic substrate One-Glo Luciferase Assay System (E6120, Promega) at a ratio of 1:1 was added to each well at 100 µL/well. This was stirred with a plate shaker for 5 min and transferred to a 384-well plate (3570, Corning) at a volume of 20 µL/well.
The plate was centrifuged at 1,000 × g for 1 min and the luminescence signal (700 nm luminescence) was measured using a plate reader (Envision 2104, PerkinElmer). Based on the measured values, IC50 values of the peptides were calculated using software (Prism 9, GraphPad). […]
In this Example, the in vitro myostatin inhibitory effects of the peptides synthesized in Examples 10 and 11 were evaluated according to the Evaluation Procedure (1) in Example 3.

CCCCCCC[C@@H]1NC(=O)[C@H](Cc2ccccc2)N(C)C(=O)[C@H](CCCNC(=N)N)NC(=O)[C@H](Cc2ccc(C(=O)O)cc2)NC(=O)[C@H](Cc2cccc(OCC(=O)O)c2)NC(=O)[C@H]2CCCN2C(=O)[C@H]([C@@H](C)CC)NC(=O)[C@H](Cc2ccccc2)N(C)C(=O)[C@H](Cc2ccc(O)cc2)NC(=O)[C@H](Cc2cn(-c3ccc(C(=O)O)cc3)c3cc(O)ccc23)NC(=O)[C@H](C)NC(=O)CN2CCC(=O)NC[C@@H](C(=O)N(C)[C@@H](Cc3ccccc3)C(=O)N[C@@H](C(=O)N3CCC(CCC(N)=O)CC3)CSCC2=O)N(C)C1=O [Myostatin_99_v478] ({CH2CO}-[N(CH2CH2CO)Gly]A[Trp(6-OH,1-(4-HO2C-Ph))]Y[NMeF]I[dP][Phe(3-OCH2COOH)][Phe(4-COOH)]R[NMeF][X1][NMeDap][NMeF][dC]-{Piperidine(4-CH2CH2CONH2)}; lactam 1-13; thioether N-15)
Selectivity: 575.7

CCCCCCC[C@@H]1NC(=O)[C@H](Cc2ccccc2)N(C)C(=O)[C@H](CCCNC(=N)N)NC(=O)[C@H](Cc2ccc(C(=O)O)cc2)NC(=O)[C@H](Cc2cccc(OCC(=O)O)c2)NC(=O)[C@H]2CCCN2C(=O)[C@H]([C@@H](C)CC)NC(=O)[C@H](Cc2ccccc2)N(C)C(=O)[C@H](Cc2ccc(O)cc2)NC(=O)[C@H](Cc2cn(-c3ccc(C(=O)O)cc3)c3cc(O)ccc23)NC(=O)[C@H](C)NC(=O)CN(CCCC(=O)O)C(=O)[C@H](C)N(C)C(=O)[C@@H](C)NC(=O)[C@H](Cc2ccccc2)N(C)C(=O)[C@H](C)N(C)C1=O [Myostatin_99_v482] (cyclo(A[Trp(6-OH,1-(4-HO2C-Ph))]Y[NMeF]I[dP][Phe(3-OCH2COOH)][Phe(4-COOH)]R[NMeF][X1][NMeA][NMeF][dA][NMeA][Gly(N(CH2)3COOH)]))
Selectivity: 814.5

CCCCCCC[C@@H]1NC(=O)[C@H](Cc2ccccc2)N(C)C(=O)[C@H](CCCNC(=N)N)NC(=O)[C@H](Cc2ccc(C(=O)O)cc2)NC(=O)[C@H](Cc2cccc(OCC(=O)O)c2)NC(=O)[C@H]2CCCN2C(=O)[C@H]([C@@H](C)CC)NC(=O)[C@H](Cc2ccccc2)N(C)C(=O)[C@H](Cc2ccc(O)cc2)NC(=O)[C@H](Cc2cn(-c3ccc(C(=O)O)cc3)c3cc(O)ccc23)NC(=O)[C@H](C)NC(=O)[C@H](C)NC(=O)[C@H](C)N(C)C(=O)[C@@H](C)NC(=O)[C@H](Cc2ccccc2)N(C)C(=O)[C@H](C)N(C)C1=O [Myostatin_99_v483] (cyclo(AA[Trp(6-OH,1-(4-HO2C-Ph))]Y[NMeF]I[dP][Phe(3-OCH2COOH)][Phe(4-COOH)]R[NMeF][X1][NMeA][NMeF][dA][NMeA]))
Selectivity: 424.2

CCCCCCC[C@@H]1NC(=O)[C@H](Cc2ccccc2)N(C)C(=O)[C@H](CCCNC(=N)N)NC(=O)[C@H](Cc2ccc(C(=O)O)cc2)NC(=O)[C@H](Cc2cccc(OCC(=O)O)c2)NC(=O)[C@H]2CCCN2C(=O)[C@H]([C@@H](C)CC)NC(=O)[C@H](Cc2ccccc2)N(C)C(=O)[C@H](Cc2ccc(O)cc2)NC(=O)[C@H](Cc2cn(-c3ccc(C(=O)O)cc3)c3cc(O)ccc23)NC(=O)[C@H](C)NC(=O)CN(CCCC(=O)O)C(=O)CSC[C@H](C(=O)N2CCC(CCC(N)=O)CC2)NC(=O)[C@H](Cc2ccccc2)N(C)C(=O)[C@H](C)N(C)C1=O [Myostatin_99_v488] ({CH2CO}-[Gly(N(CH2)3COOH)]A[Trp(6-OH,1-(4-HO2C-Ph))]Y[NMeF]I[dP][Phe(3-OCH2COOH)][Phe(4-COOH)]R[NMeF][X1][NMeA][NMeF][dC]-{Piperidine(4-CH2CH2CONH2)}; thioether N-15)
Selectivity: 294.4
